# From the supplement of paper PMC8728848
# Some of the results follow.
# What was measured:
# Assay in all cases: glycan array binding signal (z-score within array); higher = stronger binding
# Conditions in all cases: glycan notation: IUPAC condensed, linker removed
# Gal(b1-3)Gal = target: Gal(b1-3)Gal
# Outline: (§1)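 The binding signal is a Z-score computed within each array and averaged over linkers. Arrays of the same protein sequence at different concentrations or buffers were also averaged together. Data originate from 3228 arrays in the Consortium for Functional Glycomics database, kept only where the protein sequence was available.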
# Gal(b1-3)Gal(b1-4)GlcNAc = target: Gal(b1-3)Gal(b1-4)GlcNAc
# Outline: as §1
# Gal(b1-3)GalNAc = target: Gal(b1-3)GalNAc
# Outline: as §1
# [1] = target: Gal(b1-3)GalNAc(a1-3)[Fuc(a1-2)]Gal(b1-4)Glc
# Outline: as §1
# [2] = target: Gal(b1-3)GalNAc(a1-3)[Fuc(a1-2)]Gal(b1-4)GlcNAc
# Outline: as §1
# Gal(b1-3)GalNAc(b1-3)Gal = target: Gal(b1-3)GalNAc(b1-3)Gal
# Outline: as §1
# [3] = target: Gal(b1-3)GalNAc(b1-3)Gal(a1-4)Gal(b1-4)Glc
# Outline: as §1
# [4] = target: Gal(b1-3)GalNAc(b1-3)Gal(b1-4)Glc
# Outline: as §1
# [5] = target: Gal(b1-3)GalNAc(b1-3)Gal(b1-4)GlcNAc
# Outline: as §1
# [6] = target: Gal(b1-3)GalNAc(b1-4)Gal(b1-4)Glc
# Outline: as §1
# [7] = target: Gal(b1-3)GalNAc(b1-4)[Neu5Ac(a2-3)]Gal(b1-4)Glc
# Outline: as §1
# Gal(b1-3)GlcNAc = target: Gal(b1-3)GlcNAc
# Outline: as §1
# [8] = target: Gal(b1-3)GlcNAc(a1-3)Gal(b1-4)GlcNAc
# Outline: as §1
# [9] = target: Gal(b1-3)GlcNAc(a1-6)Gal(b1-4)GlcNAc
# Outline: as §1
# Gal(b1-3)GlcNAc(b1-2)Man = target: Gal(b1-3)GlcNAc(b1-2)Man
# Outline: as §1
# [10] = target: Gal(b1-3)GlcNAc(b1-2)Man(a1-3)[Gal(b1-3)GlcNAc(b1-2)Man(a1-6)]Man(b1-4)GlcNAc(b1-4)GlcNAc
# Outline: as §1
# [11] = target: Gal(b1-3)GlcNAc(b1-2)Man(a1-3)[Gal(b1-3)GlcNAc(b1-2)Man(a1-6)]Man(b1-4)GlcNAc(b1-4)[Fuc(a1-6)]GlcNAc
# Outline: as §1
# [12] = target: Gal(b1-3)GlcNAc(b1-2)Man(a1-3)[GlcNAc(b1-4)][Gal(b1-3)GlcNAc(b1-2)Man(a1-6)]Man(b1-4)GlcNAc(b1-4)GlcNAc
# Outline: as §1
# [13] = target: Gal(b1-3)GlcNAc(b1-2)[Gal(b1-3)GlcNAc(b1-6)]Man(a1-6)[Gal(b1-3)GlcNAc(b1-2)Man(a1-3)]Man(b1-4)GlcNAc(b1-4)GlcNAc
# Outline: as §1
# [14] = target: Gal(b1-3)GlcNAc(b1-3)Gal(b1-3)GlcNAc
# Outline: as §1
# [15] = target: Gal(b1-3)GlcNAc(b1-3)Gal(b1-4)Glc
# Outline: as §1
# [16] = target: Gal(b1-3)GlcNAc(b1-3)Gal(b1-4)GlcNAc
# Outline: as §1
# [17] = target: Gal(b1-3)GlcNAc(b1-3)Gal(b1-4)GlcNAc(b1-2)Man(a1-3)[Gal(b1-3)GlcNAc(b1-3)Gal(b1-4)GlcNAc(b1-2)Man(a1-6)]Man(b1-4)GlcNAc(b1-4)GlcNAc
# Outline: as §1
# [18] = target: Gal(b1-3)GlcNAc(b1-3)Gal(b1-4)GlcNAc(b1-2)[Gal(b1-3)GlcNAc(b1-3)Gal(b1-4)GlcNAc(b1-6)]Man(a1-6)[Gal(b1-3)GlcNAc(b1-3)Gal(b1-4)GlcNAc(b1-2)Man(a1-3)]Man(b1-4)GlcNAc(b1-4)[Fuc(a1-6)]GlcNAc
# Outline: as §1
# [19] = target: Gal(b1-3)GlcNAc(b1-3)Gal(b1-4)GlcNAc(b1-3)Gal(b1-4)GlcNAc(b1-2)[Gal(b1-3)GlcNAc(b1-3)Gal(b1-4)GlcNAc(b1-3)Gal(b1-4)GlcNAc(b1-6)]Man(a1-6)[Gal(b1-3)GlcNAc(b1-3)Gal(b1-4)GlcNAc(b1-3)Gal(b1-4)GlcNAc(b1-2)Man(a1-3)]Man(b1-4)GlcNAc(b1-4)[Fuc(a1-6)]GlcNAc
# Outline: as §1
# [20] = target: Gal(b1-3)GlcNAc(b1-3)Gal(b1-4)GlcNAc(b1-6)[Gal(b1-3)GlcNAc(b1-3)]Gal(b1-4)Glc
# Outline: as §1
# [21] = target: Gal(b1-3)GlcNAc(b1-3)Gal(b1-4)[Fuc(a1-3)]GlcNAc
# Outline: as §1
# [22] = target: Gal(b1-3)GlcNAc(b1-3)Gal(b1-4)[Fuc(a1-3)]GlcNAc(b1-6)[Gal(b1-3)GlcNAc(b1-3)]Gal(b1-4)Glc
# Outline: as §1
# [23] = target: Gal(b1-3)GlcNAc(b1-3)GalNAc
# Outline: as §1
# [24] = target: Gal(b1-3)GlcNAc(b1-6)Gal(b1-4)GlcNAc
# Outline: as §1
# [25] = target: Gal(b1-3)GlcNAc(b1-6)GalNAc
# Outline: as §1
# [26] = target: Gal(b1-3)GlcNAc(b1-6)[Gal(b1-3)]GalNAc
# Outline: as §1
# Gal(b1-3)GlcNAc6S = target: Gal(b1-3)GlcNAc6S
# Outline: as §1
# [27] = target: Gal(b1-3)[Fuc(a1-4)]GlcNAc
# Outline: as §1
# [28] = target: Gal(b1-3)[Fuc(a1-4)]GlcNAc(b1-2)Man
# Outline: as §1
# [29] = target: Gal(b1-3)[Fuc(a1-4)]GlcNAc(b1-2)Man(a1-3)[Gal(b1-3)[Fuc(a1-4)]GlcNAc(b1-2)Man(a1-6)]Man(b1-4)GlcNAc(b1-4)[Fuc(a1-6)]GlcNAc
# Outline: as §1
# [30] = target: Gal(b1-3)[Fuc(a1-4)]GlcNAc(b1-3)Gal(b1-3)[Fuc(a1-4)]GlcNAc
# Outline: as §1
# [31] = target: Gal(b1-3)[Fuc(a1-4)]GlcNAc(b1-3)Gal(b1-4)GlcNAc
# Outline: as §1
# [32] = target: Gal(b1-3)[Fuc(a1-4)]GlcNAc(b1-3)Gal(b1-4)[Fuc(a1-3)]GlcNAc
# Outline: as §1
# [33] = target: Gal(b1-3)[Fuc(a1-4)]GlcNAc(b1-6)GalNAc
# Outline: as §1
# [34] = target: Gal(b1-3)[GlcNAc(b1-6)]GalNAc
# Outline: as §1
# [35] = target: Gal(b1-3)[GlcNAc(b1-6)]GlcNAc
# Outline: as §1
# [36] = target: Gal(b1-3)[Neu5Ac(a2-6)]GalNAc
# Outline: as §1
# [37] = target: Gal(b1-3)[Neu5Ac(a2-6)]GlcNAc
# Outline: as §1
# [38] = target: Gal(b1-3)[Neu5Ac(a2-6)]GlcNAc(a1-4)Gal(b1-4)Glc
# Outline: as §1
binder,measurement,setting,value
"OVGAL11 (Ovis aries), AAF64320 (protein) MDSLPNPYLQSVSLTVCYMVKIKANLLSAFGKNPELQVDFGTGTGQGGNIPFRFWYCDGMVVMNTFTDGSWQKEEKVLTDAFVPGQPFELQFLVLEKEYQVFVKNKPICQFAHRLPLQSVKMLDVRGDIVLTSVDTL",glycan array binding signal (z-score),Gal(b1-3)Gal,-0.03
same,glycan array binding signal (z-score),Gal(b1-3)Gal(b1-4)GlcNAc,-0.063
same,glycan array binding signal (z-score),Gal(b1-3)GalNAc,-0.167
same,glycan array binding signal (z-score),[1],-0.1
same,glycan array binding signal (z-score),[2],-0.059
same,glycan array binding signal (z-score),Gal(b1-3)GalNAc(b1-3)Gal,-0.06
same,glycan array binding signal (z-score),[3],-0.219
same,glycan array binding signal (z-score),[4],-0.187
same,glycan array binding signal (z-score),[5],-0.304
same,glycan array binding signal (z-score),[6],-0.289
same,glycan array binding signal (z-score),[7],1.62
same,glycan array binding signal (z-score),Gal(b1-3)GlcNAc,-0.093
same,glycan array binding signal (z-score),[8],-0.099
same,glycan array binding signal (z-score),[9],-0.11
same,glycan array binding signal (z-score),Gal(b1-3)GlcNAc(b1-2)Man,-0.023
same,glycan array binding signal (z-score),[10],-0.087
same,glycan array binding signal (z-score),[11],-0.047
same,glycan array binding signal (z-score),[12],-0.055
same,glycan array binding signal (z-score),[13],-0.102
same,glycan array binding signal (z-score),[14],-0.065
same,glycan array binding signal (z-score),[15],-0.117
same,glycan array binding signal (z-score),[16],-0.059
same,glycan array binding signal (z-score),[17],-0.054
same,glycan array binding signal (z-score),[18],-0.06
same,glycan array binding signal (z-score),[19],0.112
same,glycan array binding signal (z-score),[20],-0.113
same,glycan array binding signal (z-score),[21],-0.014
same,glycan array binding signal (z-score),[22],-0.069
same,glycan array binding signal (z-score),[23],-0.116
same,glycan array binding signal (z-score),[24],-0.118
same,glycan array binding signal (z-score),[25],-0.108
same,glycan array binding signal (z-score),[26],-0.119
same,glycan array binding signal (z-score),Gal(b1-3)GlcNAc6S,-0.107
same,glycan array binding signal (z-score),[27],-0.207
same,glycan array binding signal (z-score),[28],-0.128
same,glycan array binding signal (z-score),[29],-0.037
same,glycan array binding signal (z-score),[30],-0.101
same,glycan array binding signal (z-score),[31],0.252
same,glycan array binding signal (z-score),[32],-0.07
same,glycan array binding signal (z-score),[33],-0.005
same,glycan array binding signal (z-score),[34],-0.224
same,glycan array binding signal (z-score),[35],-0.523
same,glycan array binding signal (z-score),[36],-0.076
same,glycan array binding signal (z-score),[37],-0.295
same,glycan array binding signal (z-score),[38],-0.608
